From article PMC8585052
Results are given in words; binding and its absence hold for the method and conditions named. In cells and extracts the contact can be indirect. Some entries that bind do so weakly or less than the wild type. Sequences can lack the tags named with a protein.

Chains of the proteins cited; added tags and fusions are not shown.
UniProt Q96EP0: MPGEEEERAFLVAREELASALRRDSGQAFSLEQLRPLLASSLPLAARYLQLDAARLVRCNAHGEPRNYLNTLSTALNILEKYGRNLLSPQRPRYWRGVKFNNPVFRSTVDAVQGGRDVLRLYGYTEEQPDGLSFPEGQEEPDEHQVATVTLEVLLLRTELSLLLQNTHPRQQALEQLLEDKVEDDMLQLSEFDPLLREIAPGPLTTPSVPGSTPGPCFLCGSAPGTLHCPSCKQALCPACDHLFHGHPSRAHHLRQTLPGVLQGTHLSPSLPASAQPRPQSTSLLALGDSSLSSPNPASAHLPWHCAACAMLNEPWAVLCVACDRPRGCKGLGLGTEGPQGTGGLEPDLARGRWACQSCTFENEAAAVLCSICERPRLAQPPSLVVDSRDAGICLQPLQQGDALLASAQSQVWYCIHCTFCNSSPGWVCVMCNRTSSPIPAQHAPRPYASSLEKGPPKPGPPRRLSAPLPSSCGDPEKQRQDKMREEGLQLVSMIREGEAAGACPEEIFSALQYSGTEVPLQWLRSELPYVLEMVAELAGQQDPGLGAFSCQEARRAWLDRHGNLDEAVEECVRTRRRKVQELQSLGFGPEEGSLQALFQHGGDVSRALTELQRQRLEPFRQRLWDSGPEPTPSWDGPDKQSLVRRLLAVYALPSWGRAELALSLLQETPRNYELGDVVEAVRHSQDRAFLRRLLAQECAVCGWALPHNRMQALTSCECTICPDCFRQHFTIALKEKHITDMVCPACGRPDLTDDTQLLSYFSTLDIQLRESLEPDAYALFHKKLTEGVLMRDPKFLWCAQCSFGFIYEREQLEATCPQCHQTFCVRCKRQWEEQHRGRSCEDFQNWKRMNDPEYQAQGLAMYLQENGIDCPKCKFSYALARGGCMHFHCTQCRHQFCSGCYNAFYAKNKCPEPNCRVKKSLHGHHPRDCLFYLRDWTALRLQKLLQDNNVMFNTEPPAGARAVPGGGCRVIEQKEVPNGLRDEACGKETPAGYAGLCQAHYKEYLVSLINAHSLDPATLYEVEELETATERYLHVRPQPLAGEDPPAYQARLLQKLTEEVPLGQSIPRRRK

Molecular target: T1, FLAG-tagged PKP2 N109 (N-terminal amino acid 1-109 of PKP2) (human) (UniProt Q99959)
T1 sequence: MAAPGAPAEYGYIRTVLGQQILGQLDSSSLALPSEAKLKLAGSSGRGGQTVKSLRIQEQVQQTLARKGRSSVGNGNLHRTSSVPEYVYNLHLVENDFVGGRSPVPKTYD
Experiment: co-IP; tagged proteins co-transfected into HEK293 cells, lysed after 48 h (50 mM Tris-HCl pH 7.5, 10 mM MgCl2, 100 mM NaCl, 0.5% Nonidet P40, 10% glycerol); immunoprecipitated overnight at 4 °C with the indicated antibody plus protein A/G agarose or anti-FLAG M2 gel; Western blot

binding	Substance
binds	GFP-tagged EGFR (from UniProt P00533 25-1210) (receptor)
binds	HA-tagged HOIP (from UniProt Q96EP0 1-1072) (enzyme)
